PubChem BioAssay AID2147 (National Center for Advancing Translational Sciences (NCATS), 2009)
Out of some 230,000 compounds screened, about 3,600 (1.6%) were called active. Inconclusive means that the source gave no clear call. Such entries were picked first, then a sample of the others. Calls follow the shape of the dose curve; as a rule, active = well fitted inhibition curve with a large enough effect (not every such curve was filed as active); inconclusive = small, poorly fitted or top-dose-only effect, or another doubt; inactive = no such curve, though single readings can be large or run the other way. Where the call is inconclusive, the potency comes from a doubtful curve fit.

biological target: Lysine-specific demethylase 4E (Homo sapiens) (UniProt B2RXH2); experiment: qHTS Assay for Inhibitors of Human Jumonji Domain Containing 2E (JMJD2E); conditions: JMJD2E catalytic domain, FDH-coupled NADH fluorescence (FDH is formaldehyde dehydrogenase); series mostly up to 57.1 µM
Sequence of UniProt B2RXH2 (B2RXH2 whole entry, looked up, the tested form may be a part): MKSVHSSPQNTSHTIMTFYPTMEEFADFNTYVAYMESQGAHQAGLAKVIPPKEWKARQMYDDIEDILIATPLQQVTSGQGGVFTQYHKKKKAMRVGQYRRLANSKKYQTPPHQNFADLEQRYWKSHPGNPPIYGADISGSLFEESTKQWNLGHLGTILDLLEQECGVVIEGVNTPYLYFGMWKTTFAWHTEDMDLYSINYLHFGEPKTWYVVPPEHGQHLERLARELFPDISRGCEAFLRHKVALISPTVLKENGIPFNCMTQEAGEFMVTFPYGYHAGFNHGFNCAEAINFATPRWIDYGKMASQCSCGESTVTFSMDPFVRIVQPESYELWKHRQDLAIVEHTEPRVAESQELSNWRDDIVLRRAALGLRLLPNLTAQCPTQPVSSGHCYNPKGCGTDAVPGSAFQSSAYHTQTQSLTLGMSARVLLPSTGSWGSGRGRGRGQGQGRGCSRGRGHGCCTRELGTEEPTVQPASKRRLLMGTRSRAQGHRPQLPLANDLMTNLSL
Also: nearly all actives have a fitted effect of over 50% in size.
Potency is read from the fitted curve at half-maximal effect; tags tell the direction and shape of the fitted curve.

Question: How did the Potency turn out when `COc1cc(/C=C(\NC(C)=O)C(=O)Nc2cccc(O)c2)ccc1OC(C)=O` was run?
Answer: inactive

Question: How did the Potency turn out when `COC(=O)CCN1CCc2cc(N=Nc3ccc([N+](=O)[O-])cc3)ccc21` was run?
Answer: inactive

Question: `CC1=C(C)C(C)=C(C#N)C(=C(C#N)C#N)N1` was tested. Which Potency did it give?
Answer: inconclusive: 28.2 µM [inhibitor, partial curve]

Question: With `COCCCNC(=S)Nc1ccccc1[N+](=O)[O-]` as the molecule, how does the Potency read?
Answer: inactive

Question: With `COc1ccc(/C(C)=N/NC(=O)C(NC(=O)c2ccccc2)c2n[nH]c(=O)c3ccccc23)c(OC)c1` (configuration not stated) as the molecule, how does the Potency read?
Answer: inactive

Question: With `COc1ccc(Cl)cc1NC(=S)Nc1cccnc1` as the molecule, how does the Potency read?
Answer: inconclusive: 39.8 µM [inhibitor, single point]

Question: For `Cc1cccc(-n2c(C)n[nH]c2=S)c1C`, which Potency is on record?
Answer: inactive

Question: With `CN(C)C(=O)c1ccc(-c2ccc3ncnc(NCc4cccnc4)c3c2)cc1` as the molecule, how does the Potency read?
Answer: inconclusive: 25.1 µM [inhibitor, partial curve]

Question: With `CN(c1ccccc1)S(=O)(=O)c1ccc(Cl)c(C(=O)Nc2nc3ccccc3[nH]2)c1` as the molecule, how does the Potency read?
Answer: inconclusive: 35.5 µM [inhibitor, single point]

Question: Which Potency does the source give for `CCOC(=O)c1sc(N=NC2=C(O)CCCC2=O)c(C(=O)OCC)c1C` here?
Answer: inconclusive: 20 µM [inhibitor, partial curve]

Question: With `O=C(O)C1CC=CCC1C(=O)Nc1cccc(Cl)c1` (configuration not stated) as the molecule, how does the Potency read?
Answer: inactive

Question: Which Potency does the source give for `COCc1cc(C)nc(N2CCc3ccccc32)c1C#N` here?
Answer: inconclusive: 28.2 µM [inhibitor, partial curve]

Question: For `CCOc1ccc(OCc2ccc(C(=O)NCC3CCCO3)o2)cc1` (configuration not stated), which Potency is on record?
Answer: inactive

Question: How did the Potency turn out when `Cc1cc(=O)oc2cc(OCc3ccc(C(=O)OCC(=O)Nc4ccccc4OC(F)F)cc3)ccc12` was run?
Answer: inconclusive: 31.6 µM [inhibitor, partial curve]

Question: How did the Potency turn out when `O=C(O)c1ccc(/C=N/NC(=O)c2cc(-c3cccs3)nc3ccccc23)cc1` was run?
Answer: inconclusive: 28.2 µM [inhibitor, partial curve]

Question: With `O=C(Nc1nnc(-c2ccncc2)o1)c1cccc(N2C(=O)CCC2=O)c1` as the molecule, how does the Potency read?
Answer: inconclusive: 31.6 µM [inhibitor, single point]

Question: For `COC(=O)c1[nH]c2ccc(Cl)cc2c1NC(=O)CCN1CCN(C2CCCCC2)CC1`, which Potency is on record?
Answer: inconclusive: 25.1 µM [inhibitor, single point]

Question: `CCOC(=O)N/N=C/c1ccc(N2CCOCC2)s1` was tested. Which Potency did it give?
Answer: inconclusive: 25.1 µM [inhibitor, partial curve]

Question: Which Potency does the source give for `COc1cc(OC)nc(NC(=O)CS(=O)(=O)c2ccccc2)n1` here?
Answer: inactive

Question: Which Potency does the source give for `O=C1C2C3C=CC(C4CC34)C2C(=O)N1/N=C/c1ccc([N+](=O)[O-])o1` (configuration not stated) here?
Answer: inactive

Question: Which Potency does the source give for `CN(C)c1oc(-c2ccccc2Cl)nc1C#N` here?
Answer: inconclusive: 28.2 µM [inhibitor, partial curve]

Question: For `COc1ccc(NC(=O)c2ccc3ccccc3c2)cc1NS(=O)(=O)c1ccc(F)cc1`, which Potency is on record?
Answer: inactive

Question: With `COc1ccccc1/C=[N+](\[O-])C1SC(=S)N(C)C1(C)C` (configuration not stated) as the molecule, how does the Potency read?
Answer: inactive

Question: How did the Potency turn out when `COc1ccc(S(=O)(=O)N(C)c2c(C)n(C)n(-c3ccccc3)c2=O)cc1OC` was run?
Answer: inactive

Question: For `Cc1ccc(-c2nc(-c3ccc(Cl)cc3)sc2CC(=O)O)c(C)c1`, which Potency is on record?
Answer: inconclusive: 25.1 µM [inhibitor, single point]

Question: Which Potency does the source give for `COc1cccc(C(=O)NC2CC3CCCC(C2)N3CC(=O)Nc2ccccc2)c1` (configuration not stated) here?
Answer: inconclusive: 39.8 µM [inhibitor, single point]

Question: How did the Potency turn out when `Fc1ccc(C2CC(c3cccs3)=NN2c2ccccc2)cc1` (configuration not stated) was run?
Answer: inconclusive: 25.1 µM [inhibitor, partial curve]

Question: For `CCCCN(c1ccccc1)S(=O)(=O)c1ccc2c(c1)CCN2C(=O)CCC(=O)O`, which Potency is on record?
Answer: inactive

Question: How did the Potency turn out when `CC(C)(O)C(=O)NNC(=S)Nc1cccc(C(F)(F)F)c1` was run?
Answer: inactive

Question: Which Potency does the source give for `Cc1cc2oc(=O)cc(C)c2c(=O)o1` here?
Answer: inconclusive: 39.8 µM [inhibitor, single point]

Question: Which Potency does the source give for `COCCNC(=O)CSc1cc(-c2ccccc2)c2ccc(OC)cc2n1` here?
Answer: inconclusive: 25.1 µM [inhibitor, partial curve]

Question: With `CNc1ccccc1C(=O)OCC(C)=O` as the molecule, how does the Potency read?
Answer: inconclusive: 35.5 µM [inhibitor, partial curve]

Question: `Cc1oc2cc(O)cc(O)c2c(=O)c1-c1ccc2c(c1)OCCCO2` was tested. Which Potency did it give?
Answer: inconclusive: 39.8 µM [inhibitor, single point]

Question: For `COC(=O)c1c(N)n(-c2ccc(N3CCOCC3)cc2)c2nc3ccccc3nc12`, which Potency is on record?
Answer: active: 17.8 µM

Question: `COc1ccccc1NC(=O)CCN1CC(C)OC(C)C1` (configuration not stated) was tested. Which Potency did it give?
Answer: inactive

Question: `O=C(c1ccccc1)N1CCN(C2CCCCCC2)CC1` was tested. Which Potency did it give?
Answer: inconclusive: 28.2 µM [inhibitor, single point]

Question: How did the Potency turn out when `CC1(C)Cc2cccc(Oc3ccc(S(=O)(=O)N4CCCC4)cn3)c2O1` was run?
Answer: inconclusive: 6.31 µM [inhibitor, single point]

Question: For `O=C(CSC1CC(=O)N(CCc2ccccc2)C1=O)Nc1cccc(Cl)c1` (configuration not stated), which Potency is on record?
Answer: inactive

Question: Which Potency does the source give for `COc1cccc(CNCCNC(=O)c2ccco2)c1OC` here?
Answer: inconclusive: 39.8 µM [inhibitor, single point]

Question: With `Cc1cc(C)n(-c2ccc(C(=O)Nc3cc(C(F)(F)F)ccc3N3CCOCC3)cc2)n1` as the molecule, how does the Potency read?
Answer: inconclusive: 22.4 µM [inhibitor, single point]

Question: For `COc1ccc(NC(=O)Cc2c(Cl)cccc2Cl)cn1`, which Potency is on record?
Answer: inactive

Question: Which Potency does the source give for `O=C(NCc1cccs1)C(=O)c1cn(CC(=O)N2CCCC2)c2ccccc12` here?
Answer: inactive

Question: `O=S(=O)(c1ccc(Br)cc1)N1CCN(c2cc(-c3ccccc3)nc3ncnn23)CC1` was tested. Which Potency did it give?
Answer: inconclusive: 35.5 µM [inhibitor, single point]

Question: How did the Potency turn out when `COc1cccc([C@H](O)Cn2cc(-c3ccc(CON=C(C)C)cc3)nn2)c1` was run?
Answer: inconclusive: 39.8 µM [inhibitor, single point]

Question: With `N#Cc1c(N)nc2c(c1-c1cccnc1)CCCCC2` as the molecule, how does the Potency read?
Answer: inconclusive: 39.8 µM [inhibitor, single point]

Question: `O=c1c2c(-c3ccccc3)csc2nc2c3ccccc3c(NCCN3CCOCC3)nn12` was tested. Which Potency did it give?
Answer: inconclusive: 31.6 µM [inhibitor, partial curve]

Question: `COc1ccc(O)c(C(=O)CC(=O)c2ccccc2)c1` was tested. Which Potency did it give?
Answer: inconclusive: 17.8 µM [inhibitor, partial curve]
